This passage reports relative growth results from the supplement of paper PMC9446081.

Each structure is given as a SMILES string. Among all 39,000 compounds or so, about 220 (0.56%) showed activity. Some of the results follow.
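Note: static incubation at 37 °C against the wild-type strain, values averaged over two biological replicates.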

In this assay the test system is Escherichia coli K-12 BW25113. The assay is described as follows: relative growth (OD600 normalised to plate interquartile mean) (fraction); higher = less growth inhibition, active = 0.2 or less. The settings on record: 50 µM; LB; incubation time: overnight (16-24 h).
As for `C[C@@H]1CN([C@H](C)CO)C(=O)c2cccc(NC(=O)NC3CCCCC3)c2O[C@@H]1CN(C)C(=O)Nc1cccc2ccccc12`, the relative growth is inactive: 0.977.

With `Cc1noc(C)c1NC(=O)N(C)C[C@H]1OCCCC[C@H](C)Oc2ccc(NC(=O)C3CCCCC3)cc2C(=O)N([C@H](C)CO)C[C@@H]1C`, the relative growth was inactive: 0.978.

Take `C=CCOC(=O)[C@@H]1[C@H]2C(=O)O[C@H](c3ccccc3)[C@H](c3ccccc3)N2[C@H](c2ccc(OCCOC(=O)[C@@H]3C[C@@H]4C(=O)N[C@@H](CCCC[N+](C)(C)C)C(=O)N4[C@@H]3c3cccc(OCCO)c3)cc2)[C@@]12C(=O)Nc1ccccc12`: the relative growth was inactive: 0.994.

Consider `Cc1noc(C)c1NC(=O)N(C)C[C@@H]1Oc2ccc(NC(=O)Nc3cccc4ccccc34)cc2C(=O)N([C@H](C)CO)C[C@H]1C`, for which the relative growth was inactive: 1.02.

For `COc1ccc(S(=O)(=O)N(C)C[C@H]2OCCCC[C@H](C)Oc3ccc(NC(=O)Nc4ccc(C(F)(F)F)cc4)cc3C(=O)N([C@@H](C)CO)C[C@@H]2C)cc1`, the relative growth is inactive: 1.02.

Consider `C[C@@H]1CN([C@@H](C)CO)C(=O)c2cccc(NC(=O)Nc3ccccc3)c2O[C@H]1CN(C)Cc1ccc(Oc2ccccc2)cc1`, for which the relative growth is inactive: 0.961.

Take `CN1C(=O)c2cc(NC(=O)c3cccs3)ccc2OC[C@@H]2O[C@H](CC(=O)NCC(F)(F)F)CC[C@H]21`: the relative growth is inactive: 0.975.

`C[C@@H]1CN([C@@H](C)CO)C(=O)c2cc(NC(=O)CCCCCC(=O)Nc3ccccc3N)ccc2O[C@H]1CN(C)C(=O)Nc1cccc2ccccc12`: the relative growth is inactive: 0.966.

Consider `C[C@H]1CN([C@@H](C)CO)C(=O)CCCn2cc(nn2)CO[C@@H]1CN(C)S(=O)(=O)c1ccc(C#N)cc1`, for which the relative growth is inactive: 0.982.

As for `COc1ccc(-c2cnc3c(c2)C(=O)N([C@H](C)CO)C[C@@H](C)[C@@H](CN(C)C(=O)Cc2ccncc2)O3)cc1`, the relative growth was inactive: 1.04.

In the case of `C[C@@H]1CCCCO[C@@H](CN(C)S(=O)(=O)c2cn(C)cn2)[C@H](C)CN([C@@H](C)CO)C(=O)c2cc(NC(=O)c3ccncc3)ccc2O1`, the relative growth is inactive: 0.985.

In the case of `C[C@@H]1CN([C@@H](C)CO)C(=O)Cc2cc(NS(=O)(=O)c3ccc(F)cc3)ccc2O[C@@H]1CN(C)S(C)(=O)=O`, the relative growth is inactive: 1.

Consider `O=C(C[C@@H]1CC[C@H]2[C@@H](COC[C@H](O)CN2S(=O)(=O)c2ccc(F)cc2)O1)N[C@@H]1CCN(Cc2ccccc2)C1`, for which the relative growth is inactive: 1.01.

Take `Nc1ccc(-n2nn[nH]c2=S)cc1`: the relative growth was inactive: 0.951.

Turning to `C[C@H]1CN([C@@H](C)CO)S(=O)(=O)c2ccc(C#CC3(O)CCCC3)cc2O[C@H]1CN(C)C(=O)Cc1ccncc1`, the relative growth was inactive: 1.02.

On to `C[C@@H]1CN([C@@H](C)CO)C(=O)Cc2cc(NC(=O)CCC(F)(F)F)ccc2O[C@@H]1CN(C)S(C)(=O)=O`, for which the relative growth is inactive: 0.979.

For `C=CCN(Cc1ccccc1)C(=O)[C@@H]1N(c2c(Cl)cccc2CO)C(=O)[C@@H]2[C@H](C(=O)O)[C@@H]3C=C[C@@]21O3`, the relative growth is inactive: 1.02.

As for `O=C(O)CCCCCCC(=O)O`, the relative growth was inactive: 1.02.

Turning to `COc1ccc(NC(=O)N(C)C[C@@H]2Oc3ccc(NC(=O)Nc4cccc5ccccc45)cc3CC(=O)N([C@@H](C)CO)C[C@H]2C)cc1`, the relative growth is inactive: 1.

For `CC(C)CC#Cc1ccc2c(c1)O[C@H](CN(C)C(=O)Cc1cccnc1)[C@H](C)CN([C@H](C)CO)S2(=O)=O`, the relative growth is inactive: 0.945.

For the molecule `CN1CCN(C(=O)C[C@@H]2C=C[C@H](NC(=O)Cc3ccccn3)[C@H](CO)O2)CC1`, the relative growth is inactive: 1.02.

With `O=C(C[C@H]1CC[C@H](NS(=O)(=O)c2ccccc2)[C@@H](CO)O1)NCc1ccncn1`, the relative growth was inactive: 1.

Regarding `C[C@@H]1CCCCO[C@@H](CN(C)CC2CCCCC2)[C@H](C)CN([C@H](C)CO)C(=O)c2cc(NS(=O)(=O)c3cccs3)ccc2O1`, the relative growth was inactive: 0.989.

On to `C[C@@H]1CN([C@@H](C)CO)C(=O)c2cc(NC(=O)Cc3ccccc3)ccc2O[C@@H](C)CCCCO[C@@H]1CN(C)Cc1ccc(C(F)(F)F)cc1`, for which the relative growth is inactive: 1.04.

As for `Cc1ccc(S(=O)(=O)Nc2ccc3c(c2)CC(=O)N([C@H](C)CO)C[C@@H](C)[C@@H](CN(C)Cc2ccc(C(F)(F)F)cc2)O3)cc1`, the relative growth is inactive: 0.968.

With `Nn1c([C@@H](O)c2ccccc2)n[nH]c1=S`, the relative growth is inactive: 0.981.

Take `C[C@H](CO)N1C[C@H](C)[C@H](CN(C)S(=O)(=O)c2cn(C)cn2)Oc2c(NC(=O)c3cnccn3)cccc2C1=O`: the relative growth is inactive: 0.962.

As to `C[C@@H]1CN([C@@H](C)CO)C(=O)c2cc(N(C)C)ccc2O[C@@H](C)CCCCO[C@@H]1CN(C)C(=O)Nc1ccc(C(F)(F)F)cc1`, the relative growth was inactive: 0.928.

As to `C[C@@H]1CN([C@H](C)CO)C(=O)c2cc(NS(=O)(=O)c3ccccc3)ccc2O[C@@H](C)CCCCO[C@H]1CN(C)C(=O)NC1CCCCC1`, the relative growth is inactive: 0.991.

Regarding `COc1ccc(S(=O)(=O)N(C)C[C@H]2Oc3ccc(NC(=O)c4ccncc4)cc3CC(=O)N([C@@H](C)CO)C[C@@H]2C)cc1`, the relative growth is inactive: 1.03.

Turning to `Cc1ccc(S(=O)(=O)N(C)C[C@@H]2Oc3ccc(NC(=O)Cn4cnnn4)cc3CC(=O)N([C@@H](C)CO)C[C@@H]2C)cc1`, the relative growth is inactive: 0.991.

Take `CC1(C)[C@H](C(=O)O)N2C(=O)C[C@H]2S1(=O)=O`: the relative growth was inactive: 0.486.

Regarding `CC(C)NC(=O)Nc1cccc2c1O[C@H](CN(C)S(=O)(=O)c1cn(C)cn1)[C@H](C)CN([C@H](C)CO)C2=O`, the relative growth is inactive: 1.

For the molecule `C[C@H](CO)N1C[C@H](C)[C@@H](CN(C)S(=O)(=O)c2ccccc2C#N)OCc2cn(nn2)CCCC1=O`, the relative growth was inactive: 1.

On to `CCCNC(=O)N1C[C@@H]2[C@H](c3ccccc31)[C@@H](CO)N2C(=O)CN1CCOCC1`, for which the relative growth is inactive: 0.997.

With `Cc1nc2c(cc1C(=O)NN)c(=O)n(C)c(=O)n2C`, the relative growth was inactive: 1.01.

On to `Cc1noc(C)c1NC(=O)Nc1ccc2c(c1)C(=O)N([C@@H](C)CO)C[C@@H](C)[C@@H](CN(C)Cc1ccc(C(F)(F)F)cc1)O2`, for which the relative growth was inactive: 0.999.

For `CCOC(=O)N(C)C[C@H]1OCc2cn(nn2)CCCC(=O)N([C@H](C)CO)C[C@@H]1C`, the relative growth is inactive: 1.03.
